Screen size: about 330,000 compounds; about 4,200 (1.3%) were called active. The shares of active, inactive and inconclusive entries below differ from those in the screen. Calls follow the shape of the dose curve; as a rule, active = well fitted activation curve with a large enough effect; inconclusive = small, poorly fitted or top-dose-only effect; inactive = no such curve, though single readings can be large or run the other way. Where the call is inconclusive, the potency comes from a doubtful curve fit.
Assay: qHTS screen for small molecules that induce genotoxicity in human embryonic kidney (HEK293T) cells expressing luciferase-tagged ELG1; also: nearly all actives have a fitted effect of over 60% in size
Details: HEK293T ELG1-luciferase reporter, luminescence, 16 h; series mostly up to 46 µM
Procedure, shortened: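 Luminescence read-out: rising ELG1-luciferase signal, reflecting elevated ELG1 protein under genetic stress, flags genotoxic compounds. Cells were treated for 16 hr at 37 °C before ONE-Glo detection.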
Potency is read from the fitted curve at half-maximal effect; tags tell the direction and shape of the fitted curve.

SMILES | Potency
CCc1ccc2c(c1)C1(NN=C(c3ccc(C)cc3)S1)C(=O)N2 (stereo not given) | inconclusive: 29.1 µM [activator, single point]
O=C(c1ccc2c(c1)OCO2)N1CCc2ccccc21 | inconclusive: 29.1 µM [activator, partial curve, poor fit]
COc1ccc(C2C(C(N)=O)=C(C)Nc3nc(-c4ccccc4)nn32)cc1OC (stereo not given) | inconclusive: 16.4 µM [activator, partial curve, poor fit]
O=C1CCCc2c1[nH]c1ccc(CN3CCCCC3)cc21 | inconclusive: 23.1 µM [activator, partial curve, poor fit]
CCSc1nnc(NC(=O)c2ccc(Br)s2)s1 | inconclusive: 4.11 µM [activator, full curve]
Cc1ccc(/C=N/NC(=O)c2nnn(-c3nonc3N)c2CN(C)C)s1 | inconclusive: 18.3 µM [activator, partial curve, poor fit]
Nc1nc2ccc(O)cc2s1 | inactive
Cc1ccc(/C=N/c2sc3c(c2C#N)CCC3)s1 | inconclusive: 1.16 µM [activator, full curve]
CCC(=O)N1CCN(c2ccc(NC(=O)c3ccco3)cc2)CC1 | inconclusive: 16.4 µM [activator, single point]
COc1cccc(C(O)c2cnc(C(C)C)n2C)c1 (stereo not given) | inactive
CCc1ccccc1NC(=O)Nc1ccc(F)cc1 | inactive
COc1cc(C(=O)Oc2ccccc2/C=N/NC(=O)c2ccc(Cl)cc2)cc(OC)c1OC | inconclusive: 9.2 µM [activator, partial curve]
CC(=O)c1c(O)c2ccccc2n(C)c1=O | inactive
Cc1cc(C)cc(NC(=O)CCN2CCCC2)c1 | inactive
O=C(NC1CCCCCC1)c1c(O)c2ccccc2[nH]c1=O | inconclusive: 3.66 µM [activator, partial curve]
O=C(CCC(=O)c1ccc[nH]1)c1ccc(Cl)cc1 | active: 8.2 µM
CCOC(=O)c1nnn(CC(=O)Nc2ccccc2)c1C(=O)OCC | inconclusive: 0.291 µM [activator, full curve]
CC(NS(=O)(=O)c1ccc(NC(=O)N2CCCCC2)cc1)c1ccccc1 (stereo not given) | inactive
Cc1ccc(NC(=O)Nc2cccc(C)n2)c(C)c1 | inconclusive: 13 µM [activator, partial curve, poor fit]
COC(=O)c1cc(C(=O)c2ccc(C(C)(C)C)cc2)c[nH]1 | inconclusive: 18.3 µM [activator, partial curve, poor fit]
CCCC(=O)c1cc2ccccc2oc1=O | inactive
Cc1ccc2c(c1)sc1nc(=O)n(-c3ccccc3)c(=O)n12 | inconclusive: 7.3 µM [activator, partial curve]
O=C(c1ccc2oc(CCCc3ccccc3)nc2c1)N1CCCCC1CO (stereo not given) | inconclusive: 10.3 µM [activator, partial curve]
COc1ccc(C(=O)NNC(=S)NC(=O)/C=C/c2cccs2)cc1 | active: 20.6 µM
COc1ccccc1OCc1cc(C(=O)N(C)CCC2CCCCO2)no1 (stereo not given) | active: 10.3 µM

SMILES | Potency
Cc1c(-c2ccc(Br)cc2)nc2ccccn12 | inconclusive: 2.31 µM [activator, full curve, poor fit]
O=C(CCSc1ccccc1)NCCSCc1ccco1 | inactive
COC(=O)C1CC(=O)N(c2ccc(OCc3ccccc3Cl)cc2)C1 (stereo not given) | inactive
C=CCc1ccc(OCc2ccc(C(=O)O)o2)c(OC)c1 | inconclusive: 2.91 µM [activator, partial curve]
CCOC(=O)c1nn(-c2ccc(C)cc2)cc1O | active: 3.16 µM
Cc1ccc(OCc2cc(C(=O)N3CCN(C)C[C@@H]3c3ccccc3)no2)cc1C | inconclusive: 10.3 µM [activator, partial curve, poor fit]
CC(C)(C)c1ccc(C(=O)Nc2ccc(C=C(C#N)C#N)cc2)cc1 | inconclusive: 4.61 µM [activator, full curve, poor fit]
Cc1ccc(NC(=O)CSc2ccc(Br)cc2)cc1S(=O)(=O)N1CCOCC1 | inconclusive: 29.1 µM [activator, single point]
COc1cc(C(C)=O)ccc1OCc1nnc(-c2ccccc2Br)o1 | inconclusive: 10 µM [activator, partial curve, poor fit]
Oc1cccc2ccc(/C=C/c3cccs3)nc12 | active: 2.24 µM
CCSc1ncc(/C=N/Nc2ccc(F)cc2)n1C | inactive
Nc1nc(CSc2ccccc2)nc(N2CCCCC2)n1 | inconclusive: 14.6 µM [activator, partial curve]
CCCn1c(C)cc(C(=O)Cn2nnc3ccccc3c2=O)c1C | inconclusive: 1.46 µM [activator, partial curve]
Cc1ccc(C(C(=O)NC2CCCC2)N(CCCO)C(=O)Cn2nnc(-c3ccc(C)o3)n2)cc1 (stereo not given) | inactive
O=C(Nc1cccnc1)c1ccc2ccccc2c1O | inconclusive: 2.82 µM [activator, partial curve]
CCCCC(=O)N1CCN(c2nc3ccc(Cl)cc3s2)CC1 | inconclusive: 23.1 µM [activator, partial curve, poor fit]
COc1ccc(Nc2ncnc3sc(C)cc23)cc1 | inconclusive: 10.3 µM [activator, partial curve, poor fit]
Cc1nnc(OCc2nc3ccccc3n2C)c2ccccc12 | inconclusive: 20.6 µM [activator, single point]
CC/C(=N\NC(=O)Cc1ccc(Br)cc1)c1cccs1 | inactive
COc1ccc(NC(=O)c2ccccc2)c([N+](=O)[O-])c1 | inconclusive: 9.2 µM [activator, partial curve, poor fit]
CN(c1ccc(C(=O)NCCSC(C)(C)C)cc1)S(C)(=O)=O | active: 10.3 µM
COc1ccccc1C(=O)Nc1cc2ccccc2oc1=O | active: 2.82 µM
O=C(CCC(=O)c1cccs1)c1cccs1 | active: 16.4 µM
Cc1ccc(Nc2nc(N)c3ccccc3n2)cc1Cl | inconclusive: 0.231 µM [activator, full curve]
Nc1c(C(=O)Nc2ccccc2)sc2nc3c(c(-c4ccco4)c12)CCCC3 | inactive

SMILES | Potency
COc1ccc(NC(=O)c2ccccc2NC(=O)CSc2ccc(C)cc2)cc1 | inconclusive: 18.4 µM [activator, partial curve, poor fit]
CC(=O)Oc1ccc(-c2csc(Nc3cccnc3)n2)cc1 | inactive
Cc1cc(Cl)c2oc(C(=O)N(C)Cc3ccon3)c(C)c2c1 | active: 18.3 µM
CCOc1ccc(C(=O)Nc2cccc(SC)c2)cc1 | inconclusive: 20.6 µM [activator, single point]
O=C(OCC(=O)N1CCCc2ccccc21)c1ccccc1[N+](=O)[O-] | inconclusive: 5.8 µM [activator, single point]
N#Cc1ccc(OC(=O)C2CCN(C3=NS(=O)(=O)c4ccccc43)CC2)cc1 | inactive
CCN1CCN(c2ccc(N3CCN(S(=O)(=O)c4ccc(C)c([N+](=O)[O-])c4)CC3)nn2)CC1 | inactive
Cc1ccc(CNC(=O)CSc2ncccn2)cc1 | inconclusive: 16.4 µM [activator, partial curve]
CSc1ccccc1OCc1cc(C(=O)N(C)Cc2ccncn2)no1 | active: 16.4 µM
CCCNc1nc2c(c(=O)[nH]c(=O)n2C)n1CCOc1ccccc1 | inconclusive: 20.6 µM [activator, partial curve, poor fit]
Cc1ccc(NC(=O)N2CCCCCC2)cc1 | inconclusive: 14.6 µM [activator, partial curve]
O=c1[nH]c(-c2ccccn2)nc2ccccc12 | inconclusive: 23.1 µM [activator, single point]
Cc1ccc(CN2C(=O)N/C(=C/c3ccc4c(c3)n(C)c(=O)n4C)C2=O)cc1 | inconclusive: 18.3 µM [activator, partial curve, poor fit]
Cc1ccc(S(=O)(=O)c2c(N)n(CCN3CCOCC3)c3nc4ccccc4nc23)cc1C | inactive
Cc1cc(SCC(=O)c2ccccc2)n2nc(C)nc2n1 | inconclusive: 29.1 µM [activator, single point]
Cc1ccc2cc(CCNC(=O)c3cccc([N+](=O)[O-])c3)c(=O)[nH]c2c1C | inactive
Cn1ncc2c(N3CCN(c4ccc(Cl)c(Cl)c4)CC3)ncnc21 | inconclusive: 4.61 µM [activator, single point]
Cc1ccc(CNS(=O)(=O)c2ccc3c(c2)n(C)c(=O)n3C)cc1 | inactive
COc1cc(C=O)ccc1OCc1cccc(Br)c1 | inconclusive: 20.6 µM [activator, single point]
N/C(=N\OC(=O)c1ccccc1[N+](=O)[O-])c1ccccn1 | inconclusive: 23.1 µM [activator, single point]
CC(C)n1cc(/C(N)=N/O)c(=O)n(Cc2ccccc2)c1=O | inactive
COc1ccc(C2N=C(c3ccccc3)NO2)cc1OC (stereo not given) | inconclusive: 8.2 µM [activator, partial curve]
CC(C)c1nc(SCc2c(F)cccc2Cl)c2c(=O)n(C)c(=O)n(C)c2n1 | inconclusive: 14.6 µM [activator, partial curve, poor fit]
COc1cccc(NC(=O)C(=O)N/N=C/c2cc(C)n(-c3ccc(Cl)c(Cl)c3)c2C)c1 | inconclusive: 23.1 µM [activator, single point]
CC(C)CN(C(=O)c1cc(=O)[nH]c2ccccc12)c1c(N)n(Cc2ccccc2)c(=O)[nH]c1=O | inactive

Source: PubChem BioAssay AID504466 (National Center for Advancing Translational Sciences (NCATS), 2011)
